Measurements as given in PubChem BioAssay AID588591 (National Center for Advancing Translational Sciences (NCATS), 2011).
About 4,700 (1.2%) of roughly 390,000 compounds were called active. The inconclusive results got no clear call from the source; some entries with a clear call stand among them for comparison. Calls follow the shape of the dose curve; as a rule, active = well fitted inhibition curve with a large enough effect; inconclusive = small, poorly fitted or top-dose-only effect, or another doubt; inactive = no such curve, though single readings can be large or run the other way. A potency beside an inconclusive call is a rough fit, not a confirmed value.

Target: DNA polymerase eta (Homo sapiens) (UniProt Q9Y253)
Assay: qHTS for Inhibitors of Polymerase Eta
Conditions: recombinant Pol eta, fluorescent DNA replication assay; series mostly up to 114 µM
Summary of the method: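 Pol eta (10 nM) was preincubated with compounds for 15 min at room temperature, after which fluorescent replication substrate (50 nM final) was added to start the reaction. Fluorescence was read kinetically at 0 and 10 min.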
Potency is read from the fitted curve at half-maximal effect; tags tell the direction and shape of the fitted curve.

Sequence of UniProt Q9Y253 (Q9Y253 whole entry, looked up): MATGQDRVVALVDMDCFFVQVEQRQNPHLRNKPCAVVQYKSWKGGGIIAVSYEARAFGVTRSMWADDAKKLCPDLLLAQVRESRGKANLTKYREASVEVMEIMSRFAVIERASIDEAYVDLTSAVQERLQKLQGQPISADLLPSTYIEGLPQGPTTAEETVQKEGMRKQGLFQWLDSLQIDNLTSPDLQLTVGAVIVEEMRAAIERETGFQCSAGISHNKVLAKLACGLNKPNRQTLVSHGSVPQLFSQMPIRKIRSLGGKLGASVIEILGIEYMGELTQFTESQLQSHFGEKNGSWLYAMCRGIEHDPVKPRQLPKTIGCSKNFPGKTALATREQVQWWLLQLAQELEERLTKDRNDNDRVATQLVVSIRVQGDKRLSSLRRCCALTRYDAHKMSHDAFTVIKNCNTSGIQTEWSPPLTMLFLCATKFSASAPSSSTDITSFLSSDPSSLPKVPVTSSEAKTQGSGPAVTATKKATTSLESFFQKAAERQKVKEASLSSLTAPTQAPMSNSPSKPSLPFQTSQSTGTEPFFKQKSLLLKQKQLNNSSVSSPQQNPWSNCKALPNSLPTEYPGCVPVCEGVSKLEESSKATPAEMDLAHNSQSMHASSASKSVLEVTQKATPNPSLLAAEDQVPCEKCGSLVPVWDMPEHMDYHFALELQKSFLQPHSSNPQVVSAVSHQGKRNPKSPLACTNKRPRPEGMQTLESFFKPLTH

SMILES | Potency
CCCCNC(=O)COC(=O)c1c2c(nc3ccccc13)/C(=C/c1cccs1)CC2 | inconclusive: 31.6 µM [inhibitor, full curve]
O=C(CCCCCN1C(=O)CCC1=O)Nc1ccc2c(c1)OCO2 | inconclusive: 25.1 µM [inhibitor, partial curve, poor fit]
COc1ccc(S(=O)(=O)N(C)Cc2cccs2)cc1Br | inactive
Cc1ccc(NC(=O)COC(=O)CCc2ccc(S(=O)(=O)N3CCOCC3)cc2)cc1C | inconclusive: 79.4 µM [inhibitor, partial curve, poor fit]
Cc1csc2c(=O)sc(NC(=O)c3cccs3)nc12 | inconclusive: 20 µM [inhibitor, full curve]
Cn1c(C(=O)NCc2cccc(F)c2)cc2cc(S(=O)(=O)N3CCCCC3)ccc21 | inactive
COc1cccc(-c2nc(C(N)=O)c3c(n2)n(-c2ccc4c(c2)OCO4)c(=O)n3C)c1OC | inactive
Cc1ccc(Nc2n[nH]c(=S)s2)cc1C | inactive
Cc1ccc(NC2CCCN(C(=O)C3CCCCC3)C2)cc1C (centres undefined) | inconclusive: 89.1 µM [inhibitor, single point]
O=C(CSc1nc2c(c(=O)[nH]1)CN(Cc1ccc3c(c1)OCO3)CC2)Nc1ccc(F)cc1 | inconclusive: 89.1 µM [inhibitor, partial curve]
Cc1ccc(NC(=O)c2ccc3nc[nH]c3c2)nc1 | inconclusive: 56.2 µM [inhibitor, partial curve, poor fit]
O=C(Cc1ccc(F)cc1)N(c1ccccc1)C1C=CS(=O)(=O)C1 (centres undefined) | inactive
COc1cc(NS(=O)(=O)c2ccc3c(c2)C(C)(C)C(=O)N3C)cc(OC)c1 | inconclusive: 25.1 µM [inhibitor, partial curve, poor fit]
O=C(CN1CCCCCCC1)N/N=C/c1ccc(F)cc1F | inconclusive: 79.4 µM [inhibitor, partial curve, poor fit]
CC(=O)Nc1ccc(OCC(=O)N2CCC(Cc3ccccc3)CC2)cc1 | inconclusive: 89.1 µM [inhibitor, partial curve, poor fit]
CCN(CC)CCCNC(=O)Cn1c(-c2cccs2)cc2cc(Cl)ccc21 | inactive
CCN(CC)CCCNc1nc(N)c([N+](=O)[O-])c(N2CCCCCC2)n1 | inconclusive: 89.1 µM [inhibitor, partial curve, poor fit]
O=C(NC(=S)Nc1ccc(Cl)cn1)C(c1ccccc1)c1ccccc1 | inconclusive: 56.2 µM [inhibitor, partial curve, poor fit]
CN1CCN(CC(=O)N(C)c2nc(-c3ccccc3)cs2)CC1 | inconclusive: 89.1 µM [inhibitor, partial curve, poor fit]
COc1ccc(CN(CC(=O)NC2CCCCC2)C(=O)CCC(=O)Nc2nccs2)cc1 | inactive
COc1cc(-c2c(C#N)c(=O)[nH]c3c2c(C)nn3-c2ccccc2)ccc1O | inactive
Cc1ccc(NC(=O)Cn2nnc(C(=O)NCc3ccco3)c2N)c(C)c1 | inconclusive: 31.6 µM [inhibitor, full curve]
CCOc1ccc(NC(=O)c2ccc(NC(=O)Cc3n[nH]c(=O)c4ccccc34)cc2)cc1 | inactive

SMILES | Potency
O=C(COCc1cc(-c2ccco2)on1)Nc1ccc(OC(F)(F)F)cc1 | inactive
COc1ccccc1CCNC(C)CCc1ccc(O)cc1 (centres undefined) | inactive
Clc1ccc(C2=NN=C3COc4ccccc4N3C2)cc1 | inconclusive: 31.6 µM [inhibitor, partial curve, poor fit]
COc1cccc(-c2c(C(=O)N/N=C/c3cccs3)nnn2-c2nonc2N)c1 | inactive
C/C(=N\NC(=S)NCc1ccccc1)c1ccc(C(C)(C)C)cc1 | inconclusive: 79.4 µM [inhibitor, partial curve, poor fit]
Cc1nc(Nc2nc(-c3ccccc3)cc(=O)[nH]2)nc2ccccc12 | inconclusive: 6.31 µM [inhibitor, full curve, poor fit]
Cc1ccc(OCC(=O)N2CCc3ccccc3C2)c(Br)c1 | inconclusive: 39.8 µM [inhibitor, partial curve, poor fit]
O=C(COC(=O)/C=C/c1ccccc1)Nc1cccc(Oc2ccccc2)c1 | inconclusive: 100 µM [inhibitor, partial curve, poor fit]
Cc1cc(OC(C)C(=O)NC(Cc2c[nH]c3ccc(O)cc23)C(=O)O)c2c(C)c(C)c(=O)oc2c1 (centres undefined) | inconclusive: 50.1 µM [inhibitor, partial curve]
Cc1cccc(Nc2ccccc2C(=O)OCC(=O)NCc2ccco2)c1C | active: 79.4 µM
Cc1cc(NC(=O)CSc2nc3ccccc3c(=O)n2C(C)c2ccccc2)no1 (centres undefined) | inconclusive: 3.98 µM [inhibitor, partial curve, poor fit]
Nc1cccc(C(=O)Nc2ccc3nc(-c4cccnc4)[nH]c3c2)c1 | inconclusive: 17.8 µM [inhibitor, full curve, poor fit]
C/C=C1\COC(C(=O)NCCN2CCCC2)(C(F)(F)F)C=C1C=C1CCCCC1 (centres undefined) | inconclusive: 70.8 µM [inhibitor, partial curve, poor fit]
CCOC(=O)C1C(c2ccc(O)c(O)c2)NC(=S)NC1(O)C(F)(F)F (centres undefined) | inactive
O=C1C(Cc2ccccc2)Nc2ncnc(N3CCOCC3)c2N1Cc1ccccc1 (centres undefined) | inactive
Nc1nc(-c2cccs2)c(CC(=O)O)s1 | inconclusive: 50.1 µM [inhibitor, partial curve, poor fit]
CCOc1ccc(N(CC(=O)NCCOc2ccccc2OC)S(=O)(=O)c2ccccc2)cc1 | inconclusive: 89.1 µM [inhibitor, partial curve, poor fit]
Cc1ccc2nc(CSc3nnc(Nc4ccccc4C)s3)cc(=O)n2c1 | inconclusive: 25.1 µM [inhibitor, single point]
Cc1nnc(SCC(=O)Nc2ccc(N(C)C)cc2)[nH]c1=O | inactive
COc1cccc(NC(=O)C(=O)NCC(c2ccco2)N2CCc3ccccc3C2)c1 (centres undefined) | inactive
C[C@@H]1NC(=O)c2cc([N+](=O)[O-])cc(I)c2NCCCC[C@@H](C(N)=O)NC(=O)[C@H](CCC(=O)O)NC1=O | active: 22.4 µM
Cc1ccccc1N1CC(c2nc3ccccc3n2Cc2ccc(Br)cc2)CC1=O (centres undefined) | inactive
Cc1cc(Br)ccc1NC(=O)c1c(C)oc2ncnc(N3CCCCC3)c12 | inactive

SMILES | Potency
O=C(c1ccc(-c2ccc([N+](=O)[O-])cc2)o1)N1CCCCCCC1 | inconclusive: 28.2 µM [inhibitor, full curve]
Cc1ccc(S(=O)(=O)N2CCOCC2)cc1C(=O)NC(=S)N1CC(C)OC(C)C1 (centres undefined) | inactive
CCN(CC)c1ccc(/C=N/NC(=O)Cc2cccs2)cc1 | inconclusive: 89.1 µM [inhibitor, partial curve, poor fit]
Cc1oc(-c2ccc(Cl)cc2)nc1CN1CCCC(C(=O)NCCc2ccccc2)C1 (centres undefined) | inconclusive: 50.1 µM [inhibitor, partial curve, poor fit]
COc1ccc(Nc2nc(Nc3ccc(OC)cc3OC)nc(N3CCOCC3)n2)c(OC)c1 | inactive
CCCCn1c(SCC(=O)NC(=O)NCc2ccco2)nc2cc(S(N)(=O)=O)ccc21 | active: 79.4 µM
COC(=O)c1ccn(-c2nc(-c3ccc(Cl)cc3)cc(C(F)(F)F)n2)n1 | inactive
COc1ccc(OC)c(-n2c(C)nc3cc(C(=O)O)ccc32)c1 | active: 79.4 µM
O=C(Cn1c(=O)n(Cc2ccc(C(=O)NCc3ccc4c(c3)OCO4)cc2)c(=O)c2ccccc21)Nc1ccc(F)cc1F | active: 79.4 µM
O=C(CCC1COc2ccccc2O1)NCc1ccco1 (centres undefined) | inconclusive: 28.2 µM [inhibitor, single point]
Cc1ccccc1Cn1cc(CCC(=O)NCc2cccc(Br)c2)c2ccccc21 | inactive
CCOC(=O)c1sc(=S)n(-c2ccc(C)cc2)c1N | inconclusive: 100 µM [inhibitor, partial curve, poor fit]
Cc1cc(C)cc(NC(c2nnc(-c3cccc(F)c3)o2)c2ccc(F)cc2Cl)c1 (centres undefined) | inconclusive: 56.2 µM [inhibitor, partial curve, poor fit]
Cc1ccc(S(=O)(=O)N2CCCC2C(=O)OCc2ccco2)cc1 (centres undefined) | active: 31.6 µM
Cc1ccc(C(=O)NCC(=O)NCC(=O)OCC(=O)c2ccc([N+](=O)[O-])cc2)cc1 | inactive
O=C(Nc1cc(C(F)(F)F)ccc1-n1cncn1)c1ccc(-c2ccccc2)cc1 | inconclusive: 44.7 µM [inhibitor, partial curve, poor fit]
O=C(NC(=S)NCCC1=CCCCC1)c1ccccc1Br | inconclusive: 79.4 µM [inhibitor, single point]
O=C(O)c1cccc(NC(=S)NC(=O)c2ccc(-c3ccc(Cl)cc3)o2)c1 | inconclusive: 56.2 µM [inhibitor, partial curve, poor fit]
Cc1ccc(C(=O)NCc2ccco2)cc1S(=O)(=O)N1CCCCC1 | inconclusive: 89.1 µM [inhibitor, single point]
CCCCn1c(=N)n(CC(=O)c2ccc(Br)s2)c2ccccc21 | inactive
CC1(C)Cc2c(C#N)c(N3CCN(C(=O)c4ccccc4)CC3)nc(-c3ccco3)c2CS1 | active: 31.6 µM
Cc1nn(-c2ccc(Cl)cc2)c2nc(-c3cccnc3)cc(C(F)(F)F)c12 | inactive
Nc1ccc(C(=O)Nc2ccc(OC(F)(F)C(F)F)c(NC(=O)c3ccc(N)cc3)c2)cc1 | inconclusive: 79.4 µM [inhibitor, partial curve, poor fit]
